Data on 117 sequences can be found in the supplement of paper PMC5499739.

The full ranking holds about 16,000 sequences; the median of “Z-score” is about -0.37, and the highest 2% start at about 3.1. The list shows a part of the results.

The assay deals with RBM10 RRM1-ZnF-RRM2 (GST-tagged construct). Put plainly: RNAcompete 7-mer binding Z-score; higher = stronger binding preference. As for the experimental part:
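RNAcompete: 20 pmol GST-tagged RBM10 RNA-binding constructs were incubated with a designed RNA pool of about 241,000 sequences up to 41 nt (1.5 nmol) on glutathione beads for 30 min at 4 °C and washed. Bound RNAs were identified by microarray hybridisation. Each RNA 7-mer is scored by a one-sided Z-score of its enrichment, computed over probes that contain the 7-mer within longer pool sequences.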
Regarding GGCUAGG, the “RNAcompete 7-mer binding Z-score” value was determined as 1.36.

In the case of UCUAGAC, the “RNAcompete 7-mer binding Z-score” value was -0.821.

Turning to ACGGUCC, the “RNAcompete 7-mer binding Z-score” value was -0.482.

On to ACGGACU, for which the “RNAcompete 7-mer binding Z-score” value is -0.122.

With AAUACGC, the “RNAcompete 7-mer binding Z-score” value is -0.271.

As for UGUUGUG, the “RNAcompete 7-mer binding Z-score” value was determined as 0.119.

GGGCGAG: the “RNAcompete 7-mer binding Z-score” value is 3.88.

With UGGGUAU, the “RNAcompete 7-mer binding Z-score” value came out at 2.2.

As for UCUGCUC, the “RNAcompete 7-mer binding Z-score” value was -0.872.

AUGGCCA: the “RNAcompete 7-mer binding Z-score” value was determined as 0.075.

Turning to GUGCAAC, the “RNAcompete 7-mer binding Z-score” value came out at 0.115.

CAUUCUG: the “RNAcompete 7-mer binding Z-score” value was -0.817.

For CAGCAUA, the “RNAcompete 7-mer binding Z-score” value was -0.479.

In the case of GGUUUAG, the “RNAcompete 7-mer binding Z-score” value is 1.11.

Turning to CAUAGCA, the “RNAcompete 7-mer binding Z-score” value is -0.391.

With CUUGAGG, the “RNAcompete 7-mer binding Z-score” value stood at 0.221.

Regarding CGUACUA, the “RNAcompete 7-mer binding Z-score” value was -0.337.

Take CGCCCCU: the “RNAcompete 7-mer binding Z-score” value was -0.675.

On to GAUUUUG, for which the “RNAcompete 7-mer binding Z-score” value is -0.213.

Consider UUUUUUU, for which the “RNAcompete 7-mer binding Z-score” value is -0.785.

Take CCCUGUA: the “RNAcompete 7-mer binding Z-score” value is -0.734.

For CGAACCU, the “RNAcompete 7-mer binding Z-score” value was -0.715.

With UGAGUCG, the “RNAcompete 7-mer binding Z-score” value was found to be 0.319.

Consider AUGCAUC, for which the “RNAcompete 7-mer binding Z-score” value is -0.362.

With AAAUCUG, the “RNAcompete 7-mer binding Z-score” value is -0.49.

For CGUAACG, the “RNAcompete 7-mer binding Z-score” value was 0.0313.

GGGGGCU: the “RNAcompete 7-mer binding Z-score” value turned out to be 1.78.

Regarding GUUUAGU, the “RNAcompete 7-mer binding Z-score” value is -0.125.

Take UGAAAGG: the “RNAcompete 7-mer binding Z-score” value was determined as 2.76.

As for AGCCAGU, the “RNAcompete 7-mer binding Z-score” value was -0.515.

As to GUUUAAC, the “RNAcompete 7-mer binding Z-score” value was -0.49.

Regarding GGAUAGC, the “RNAcompete 7-mer binding Z-score” value turned out to be 2.07.

Turning to GCAGCUC, the “RNAcompete 7-mer binding Z-score” value was -0.566.

For CUGAAUC, the “RNAcompete 7-mer binding Z-score” value is -0.617.

Consider UAAGUGG, for which the “RNAcompete 7-mer binding Z-score” value came to 1.63.

Regarding UGCAGUC, the “RNAcompete 7-mer binding Z-score” value was -0.526.

Turning to CGAACAG, the “RNAcompete 7-mer binding Z-score” value is 0.0131.

As to AUAAUAC, the “RNAcompete 7-mer binding Z-score” value was -0.555.

On to UCCCUUG, for which the “RNAcompete 7-mer binding Z-score” value is -0.748.

As to CUGAUAG, the “RNAcompete 7-mer binding Z-score” value is -0.315.

Consider GAUUAUU, for which the “RNAcompete 7-mer binding Z-score” value is -0.406.

UUAGAAU: the “RNAcompete 7-mer binding Z-score” value was -0.0998.

Consider ACAAAAG, for which the “RNAcompete 7-mer binding Z-score” value turned out to be 0.268.

Take AAGGGUA: the “RNAcompete 7-mer binding Z-score” value amounted to 4.27.

For the sequence CGGGGAA, the “RNAcompete 7-mer binding Z-score” value came out at 2.76.

With CUGGAUU, the “RNAcompete 7-mer binding Z-score” value was -0.133.

In the case of UCUGUAU, the “RNAcompete 7-mer binding Z-score” value was -0.712.

As for ACUUGGG, the “RNAcompete 7-mer binding Z-score” value is 1.24.

Turning to AAACAGA, the “RNAcompete 7-mer binding Z-score” value was 0.0786.

Regarding CCCGGUC, the “RNAcompete 7-mer binding Z-score” value was -0.657.

Consider GUUGUCA, for which the “RNAcompete 7-mer binding Z-score” value was -0.468.

As to GGUCUCA, the “RNAcompete 7-mer binding Z-score” value was -0.169.

Regarding UAUGAUG, the “RNAcompete 7-mer binding Z-score” value is 0.115.

For CGCUAUU, the “RNAcompete 7-mer binding Z-score” value was -0.795.

Regarding UUCGGCG, the “RNAcompete 7-mer binding Z-score” value was 0.173.

Take CAAGUCU: the “RNAcompete 7-mer binding Z-score” value was -0.617.

In the case of UUCCAUU, the “RNAcompete 7-mer binding Z-score” value is -0.77.

In the case of GUCCAGG, the “RNAcompete 7-mer binding Z-score” value came out at 0.308.

Turning to GUAAUGG, the “RNAcompete 7-mer binding Z-score” value amounted to 2.45.

GAUUCCC: the “RNAcompete 7-mer binding Z-score” value was -0.643.

ACGUAGG: the “RNAcompete 7-mer binding Z-score” value was 1.8.

Take GAUAGCC: the “RNAcompete 7-mer binding Z-score” value was -0.395.

In the case of UAUCCCA, the “RNAcompete 7-mer binding Z-score” value was -0.646.

For the sequence UAGGUAC, the “RNAcompete 7-mer binding Z-score” value was 0.749.

On to GAUGGGU, for which the “RNAcompete 7-mer binding Z-score” value turned out to be 3.01.

As for GCGUAAU, the “RNAcompete 7-mer binding Z-score” value was 0.275.

Take AAUCUUA: the “RNAcompete 7-mer binding Z-score” value was -0.715.

For UGAUGGG, the “RNAcompete 7-mer binding Z-score” value amounted to 2.92.

Take AUCGUAU: the “RNAcompete 7-mer binding Z-score” value was -0.304.

In the case of UAGACUU, the “RNAcompete 7-mer binding Z-score” value was -0.704.

With CAUGUGC, the “RNAcompete 7-mer binding Z-score” value is -0.253.

Turning to GUAAUAU, the “RNAcompete 7-mer binding Z-score” value was -0.144.

AAGGAGC: the “RNAcompete 7-mer binding Z-score” value came to 2.57.

For GGGCAUG, the “RNAcompete 7-mer binding Z-score” value was found to be 1.88.

For the sequence AUCUGUU, the “RNAcompete 7-mer binding Z-score” value is -0.85.

On to GGCCUCC, for which the “RNAcompete 7-mer binding Z-score” value is -0.683.

Consider UCAUUCC, for which the “RNAcompete 7-mer binding Z-score” value was -0.806.

With GCUCCCG, the “RNAcompete 7-mer binding Z-score” value was -0.464.

Regarding UUACAUA, the “RNAcompete 7-mer binding Z-score” value is -0.351.

Turning to CCCGGCU, the “RNAcompete 7-mer binding Z-score” value is -0.511.

As for GCAUAGC, the “RNAcompete 7-mer binding Z-score” value was -0.307.

On to UGUGCAU, for which the “RNAcompete 7-mer binding Z-score” value is -0.282.

Consider UGCUUAU, for which the “RNAcompete 7-mer binding Z-score” value was -0.81.

On to UGGUCGG, for which the “RNAcompete 7-mer binding Z-score” value turned out to be 1.86.

Regarding UCCAUUC, the “RNAcompete 7-mer binding Z-score” value is -0.748.

With UCAUAGG, the “RNAcompete 7-mer binding Z-score” value was determined as 0.308.

Regarding UCACGCC, the “RNAcompete 7-mer binding Z-score” value is -0.675.

For GCGUAUA, the “RNAcompete 7-mer binding Z-score” value was -0.173.

As to UUCUCGA, the “RNAcompete 7-mer binding Z-score” value is -0.759.

For the sequence GCGCCGA, the “RNAcompete 7-mer binding Z-score” value is -0.351.

In the case of CGACAGG, the “RNAcompete 7-mer binding Z-score” value turned out to be 1.38.

Turning to ACUUUCU, the “RNAcompete 7-mer binding Z-score” value is -0.959.

Consider GAUCCCA, for which the “RNAcompete 7-mer binding Z-score” value is -0.646.

In the case of CGGGGAU, the “RNAcompete 7-mer binding Z-score” value turned out to be 2.11.

Turning to UUCAAGU, the “RNAcompete 7-mer binding Z-score” value is -0.424.

CUGCGAA: the “RNAcompete 7-mer binding Z-score” value was -0.544.

AAGAAUC: the “RNAcompete 7-mer binding Z-score” value was -0.471.

Take GGUGUUU: the “RNAcompete 7-mer binding Z-score” value is 0.891.

For UCAAUAA, the “RNAcompete 7-mer binding Z-score” value was -0.497.

For GAAUAAG, the “RNAcompete 7-mer binding Z-score” value turned out to be 0.76.

Regarding UCAAUGU, the “RNAcompete 7-mer binding Z-score” value was -0.162.

In the case of GGCUAAC, the “RNAcompete 7-mer binding Z-score” value amounted to 0.221.

For the sequence CUCGCAU, the “RNAcompete 7-mer binding Z-score” value is -0.69.

For CCGUUCU, the “RNAcompete 7-mer binding Z-score” value was -0.85.

For the sequence GAAGCCU, the “RNAcompete 7-mer binding Z-score” value is -0.897.

For the sequence AGACGCA, the “RNAcompete 7-mer binding Z-score” value is -0.657.

With GACGCGC, the “RNAcompete 7-mer binding Z-score” value was -0.42.

In the case of CAACGUU, the “RNAcompete 7-mer binding Z-score” value was -0.38.

On to CAGCAAU, for which the “RNAcompete 7-mer binding Z-score” value is -0.413.

For CAUGGUU, the “RNAcompete 7-mer binding Z-score” value amounted to 0.548.

As for CUGUGUG, the “RNAcompete 7-mer binding Z-score” value was -0.129.

Take UUUGGUG: the “RNAcompete 7-mer binding Z-score” value came to 0.629.

For the sequence GCGAGGA, the “RNAcompete 7-mer binding Z-score” value was 2.06.

For the sequence CGCGUUA, the “RNAcompete 7-mer binding Z-score” value was -0.464.

Take CGACAGC: the “RNAcompete 7-mer binding Z-score” value was -0.249.

On to CAGUCGG, for which the “RNAcompete 7-mer binding Z-score” value was 0.352.

As for CUACCCU, the “RNAcompete 7-mer binding Z-score” value is -0.803.
